The source of these data is PubChem BioAssay AID1645887 (National Center for Advancing Translational Sciences (NCATS), 2021).

Several values for one entry are separate records, joined by “and”; a condition that tells them apart may be missing. Equal entries are not always repeated. Among all 16,000 compounds or so, about 40 (0.2%) were called active. Not shown: some 1% with an inconclusive outcome. The call rests on the fitted dose curve; in most records, active means well fitted activation curve with a large enough effect; inconclusive means small, poorly fitted or top-dose-only effect, or another doubt; inactive means no such curve, though single readings can be large or run the other way. The list shows a part of the results.
On the % scale 0 is the no-effect control and ±100 the full control effect.

Sequence of UniProt Q8WZA2 (Q8WZA2 whole entry, looked up): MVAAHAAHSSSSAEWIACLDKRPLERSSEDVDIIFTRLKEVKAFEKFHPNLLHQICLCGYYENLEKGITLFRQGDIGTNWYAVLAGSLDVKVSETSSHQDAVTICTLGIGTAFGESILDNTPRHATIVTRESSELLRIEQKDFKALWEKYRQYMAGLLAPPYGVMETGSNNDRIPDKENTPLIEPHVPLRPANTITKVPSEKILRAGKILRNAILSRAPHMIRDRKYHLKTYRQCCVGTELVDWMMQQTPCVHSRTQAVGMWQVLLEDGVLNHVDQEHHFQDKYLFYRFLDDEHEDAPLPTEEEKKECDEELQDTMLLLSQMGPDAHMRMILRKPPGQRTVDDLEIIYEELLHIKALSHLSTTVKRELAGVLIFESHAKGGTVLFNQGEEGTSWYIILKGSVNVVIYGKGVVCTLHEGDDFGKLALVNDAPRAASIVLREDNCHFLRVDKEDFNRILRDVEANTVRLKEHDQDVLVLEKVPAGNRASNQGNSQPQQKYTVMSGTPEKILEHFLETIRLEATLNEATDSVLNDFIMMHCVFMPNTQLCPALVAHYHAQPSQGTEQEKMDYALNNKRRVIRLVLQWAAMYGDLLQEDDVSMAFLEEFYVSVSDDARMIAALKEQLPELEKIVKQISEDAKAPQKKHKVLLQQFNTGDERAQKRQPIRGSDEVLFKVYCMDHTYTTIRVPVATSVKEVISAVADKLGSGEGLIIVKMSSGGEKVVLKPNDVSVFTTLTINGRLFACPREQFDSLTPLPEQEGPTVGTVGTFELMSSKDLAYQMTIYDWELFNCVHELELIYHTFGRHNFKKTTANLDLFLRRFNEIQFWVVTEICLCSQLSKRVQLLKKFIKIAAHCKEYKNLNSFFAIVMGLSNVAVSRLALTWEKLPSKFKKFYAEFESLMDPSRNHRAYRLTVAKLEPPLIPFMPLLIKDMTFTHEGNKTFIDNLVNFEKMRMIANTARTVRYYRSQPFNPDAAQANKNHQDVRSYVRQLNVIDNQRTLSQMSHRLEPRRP

For this test, the target named is Rap guanine nucleotide exchange factor 4 (Homo sapiens) (UniProt Q8WZA2). Briefly: Validation qHTS for agonist of cAMP-regulated guanine nucleotide exchange factor 4 (EPAC2).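 Further: exchange makes BODIPY-GDP fluorescence drop when released from Rap1B; series mostly up to about 150 µM.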 The conditions noted are these: EPAC2 Rap1B BODIPY-GDP exchange, fluorescence; activation: stronger effect = higher value. In outline:
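Signal normalized against 6.5 mM cAMP as agonist control. Mix of EPAC2 (100 nM), RAP1B-BODIPY-GDP (250 nM) and GDP (50 uM) was read kinetically at 480/540 nm, every 5 min over 30 min, after 5 min room-temperature incubation with compound.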
A general note: Quantitative high-throughput screening tests each substance at several concentrations.
For `CN1CCCCC1C(=O)N1CCC(Oc2cccc(CN3CCN(c4ccccn4)CC3)c2)CC1` (stereo unspecified), the activation is inactive: -0.0243%.

Turning to `CN(C)C(=O)c1ccc(-c2ccc3ncnc(NCc4cccs4)c3c2)cc1`, the activation was inactive: -13.7%.

Turning to `CCCCC[C@H](O)/C=C/[C@H]1C(=O)C=C[C@@H]1C/C=C\CCCC(=O)O`, the activation was inactive: -10.8%.

As for `Nc1c[n+](N2CCOCC2)no1`, the activation was inactive: -10.1%.

For the compound `CNc1nc(-c2cccc(C#N)c2)nc2ccccc12`, the activation is inactive: -19.4%.

Consider `C[N+](C)(C)CC(O)CC(=O)[O-]` (stereo unspecified), for which the activation is inactive: -21.1%.

As for `CCNc1ncc2nc(-c3ccc(F)cc3)c(=O)n(CCC#N)c2n1`, the activation is inactive: -8.43%.

Regarding `N#C/C(=C1/SC[C@@H](c2ccc(Cl)cc2Cl)S1)n1ccnc1`, the activation was inactive: 0.0116% and inactive: -2.32% and inactive: -5.3%.

As to `NC(N)=N[C@@H](CCC(=O)O)C(=O)O`, the activation is inactive: -33%.

Regarding `COc1cc([C@H]2Oc3cc([C@H]4Oc5cc(O)cc(O)c5C(=O)[C@@H]4O)ccc3O[C@@H]2CO)ccc1O`, the activation is inactive: -36.9%.

In the case of `CC[C@@H]1[C@H]2CCCC(=O)N3CC[C@@H](C[C@@H]1OC(=O)NCc1ccccc1)[C@@H]23`, the activation is inactive: -2.95%.

For the compound `Nc1nc(=O)n([C@@H]2CS[C@H](CO)O2)cc1F`, the activation was inactive: -15.8%.

In the case of `O=C(c1cccc(F)c1)N1CCC2(CC1)CCN(c1ccccc1)CC2`, the activation is inactive: 0.837%.

As for `NC(N)=NCCCC(NC(=O)C(N)Cc1ccc(O)cc1)C(=O)O` (stereo unspecified), the activation is inactive: -20.2%.

On to `CC(c1ccc(N(C)C)cc1)c1ccnc2ccccc12` (stereo unspecified), for which the activation is inactive: 8.47%.

As for `Cc1cc(C(=O)Nc2cccc(-c3nc(CNC(=O)c4sc(C)nc4C)c(C)o3)c2)c(C)o1`, the activation was inactive: 8.96%.

With `Cc1c(C(=O)N2CCOc3ccc(Cl)cc3C2)sc2ncnc(NCCc3ccccn3)c12`, the activation was inactive: -13.5%.

Consider `COc1ccc(C(=O)N2CCC3(CC2)CCN(c2ccccn2)CC3)cc1`, for which the activation was inactive: -17.2%.

With `C[C@H]1NCc2cc(-c3ccc4c(=O)c(C(=O)O)cn(C5CC5)c4c3OC(F)F)ccc21`, the activation is inactive: 1.8%.

On to `C[N+]1(CC2COC(c3ccccc3)(c3ccccc3)O2)CCCCC1` (stereo unspecified), for which the activation is inactive: 0.308%.

Take `O=C(C[N+]1(c2ccccc2)CCOCC1)c1ccccc1`: the activation is inactive: -20.6%.

As to `Cc1ccc2c(c1)CC[C@H]1CC(=O)CC[C@@]21C`, the activation is inactive: -4.37%.

For `COc1cc(SC)ccc1C(=O)N1CCC(Cc2ccccc2)CC1`, the activation was inactive: -30.7%.

In the case of `CC(=O)Nc1ccccc1-c1nc(CNC(=O)c2ccc(Cl)cc2)c(C)o1`, the activation was inactive: -6.64%.

For `Cn1cccc1C(=O)N1CCC2(CC1)CN(Cc1ccc(C#N)cc1)C2`, the activation was inactive: 6.55%.

As to `N#CCCn1c(=O)cnc2cnc(Oc3cccc(Cl)c3)nc21`, the activation is inactive: -13.3%.

Turning to `Cn1c(CCNC(=O)C2CC23CCN(C(=O)C2=CCCC2)CC3)nc2ccccc21` (stereo unspecified), the activation is inactive: -1.15%.

Consider `CC#C[C@]1(O)CC[C@H]2[C@@H]3CCC4=CC(=O)CCC4=C3[C@@H](c3ccc(N(C)C)cc3)C[C@@]21C`, for which the activation is inactive: -5.49% and inactive: -1.65%.

On to `Cc1csc(CN(C)C(=O)c2sc3ncnc(NCC4CCCO4)c3c2C)n1` (stereo unspecified), for which the activation was inactive: -1.65%.

Consider `COc1ccc(-c2nc3cnc(OC)nc3n(Cc3cccs3)c2=O)cc1`, for which the activation was inactive: -21.1%.

With `Cc1ccc(C(=O)Nc2cccc(-c3nc(CNC(=O)C4CCCCC4)c(C)o3)c2)s1`, the activation was inactive: -5.79%.

With `O=c1c(-c2ccc(F)cc2)nc2cncnc2n1Cc1ccc(F)cc1`, the activation was inactive: -14%.

In the case of `CCCCCCCCCCCCCCC[C@@H](O)[C@H](CO)NC(=O)CCCCCCC`, the activation is inactive: 3.52%.

Regarding `COC(=O)c1c(OCc2ccccn2)cc(=O)n2c1CCN(C(=O)c1cc(C(C)C)nn1C)CC2`, the activation is inactive: 6.39%.

Take `COc1cccc2c1C(=O)c1c(O)c3c(c(O)c1C2=O)C[C@@](O)(C(=O)CO)C[C@@H]3O[C@H]1C[C@H](N)[C@H](O[C@@H]2CCCCO2)[C@H](C)O1`: the activation is inactive: 1.58%.

Turning to `COc1cc([C@@H]2c3cc4c(cc3[C@@H](O[C@@H]3O[C@@H]5CO[C@@H](C)O[C@@H]5[C@H](O)[C@@H]3O)[C@H]3COC(=O)[C@H]23)OCO4)cc(OC)c1O`, the activation is inactive: -22.5%.

On to `COCCn1c(=O)c(-c2ccc(OC)cc2)nc2cnc(Oc3ccccc3)nc21`, for which the activation was inactive: -39.1%.

As for `COC(=O)C1=CO[C@@H](O)[C@@H]2C(CO)=CC[C@H]12`, the activation was inactive: -16.9%.

With `CC(=O)Nc1ccn(C2COC(COC(=O)c3ccccc3)O2)c(=O)n1` (stereo unspecified), the activation was inactive: -7.22%.

With `NC(=S)N=Nc1ccc(NN=C(N)N)cc1`, the activation is inactive: -8.63%.

For `O=C(O)C1CC(C2CCCCN2)CN2CCCCC12` (stereo unspecified), the activation was inactive: -14.9%.

`CCCCCCNC(=O)n1cc(F)c(=O)[nH]c1=O`: the activation is inactive: -20.9%.

As for `CCC[C@@H]1C[C@@H](C(=O)N[C@@H]([C@H]2O[C@H](SC)[C@H](OP(=O)(O)O)[C@@H](O)[C@H]2O)[C@H](C)Cl)N(C)C1`, the activation is inactive: -3.77% and inactive: 1.89%.

Consider `CCc1cc(C(=O)NCC2Cc3cc(C)cc(-c4cc(C(C)=O)ccc4F)c3O2)n(C)n1` (stereo unspecified), for which the activation is inactive: -36.4%.

Take `O=c1ccn(C2OC(COP(=O)(O)OP(=O)(O)OP(=O)(O)O)C(O)C2O)c(=O)[nH]1` (stereo unspecified): the activation is inactive: 5.18%.

For `CN[C@@H]1[C@@H](O[C@H]2O[C@H](CO)[C@@H](N)[C@H](O)[C@H]2O)O[C@H]2C[C@@H](N)[C@@H](O[C@H]3[C@H](O)[C@@H](O)[C@H](N)C[C@@H]3N)O[C@@H]2[C@@H]1O`, the activation was inactive: -9.15%.

Take `CCS(=O)(=O)Nc1cc(C(=O)N[C@H]2CCCCNC2=O)c2c(c1)nc(-c1ccccc1)n2C`: the activation was inactive: -0.432%.

For the compound `c1cncc(CNc2cc(-c3ccoc3)ncn2)c1`, the activation was inactive: -0.759%.

In the case of `COc1cc(CNC(=O)c2cnn(-c3ncc4c(n3)-c3ccccc3CC4)c2C)cc(OC)c1OC`, the activation was inactive: -26.2%.

Take `COc1ccc(-c2nc3cnc(N4CCN(C)CC4)nc3n(C)c2=O)cc1`: the activation was inactive: 4.49%.

`CCNc1ncc2nc(CCc3ccccc3)c(=O)n(-c3ccc(OC)cc3)c2n1`: the activation was inactive: 3.48%.
